Common to all, as to assay: Primary Screen for Target Class Profiling of Small Molecule Inhibitors of Methyltransferases
Experiment [1] has as its target Glycine N-methyltransferase (Homo sapiens) (UniProt Q14749). To be noted: purified enzyme, MTase-Glo SAH luminescence; measured here: GNMT inhibition; at 40 µM; stronger effect = lower value. The essentials: (§1)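 Each enzyme was assayed with SAM and its substrate. SAH formation detected by MTase-Glo luminescence; single-point 40 uM screen[…].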
Experiment [2] addresses Guanidinoacetate N-methyltransferase (Homo sapiens) (UniProt Q14353). To be noted: purified enzyme, MTase-Glo SAH luminescence; measured here: GAMT inhibition; at 40 µM; stronger effect = lower value. The essentials: as §1
The target of experiment [3] is Histamine N-methyltransferase (Homo sapiens) (UniProt P50135). To be noted: purified enzyme, MTase-Glo SAH luminescence; measured here: HNMT inhibition; at 40 µM; stronger effect = lower value. In short, it runs like this:
as §1

Experiment [4] deals with Nicotinamide N-methyltransferase (Homo sapiens) (UniProt P40261). As to conditions: purified enzyme, MTase-Glo SAH luminescence; measured here: NNMT inhibition; at 40 µM; stronger effect = lower value. In short, it runs like this: as §1
Experiment [5] addresses Phenylethanolamine N-methyltransferase (Homo sapiens) (UniProt P11086). As to conditions: purified enzyme, MTase-Glo SAH luminescence; measured here: PNMT inhibition; at 40 µM; stronger effect = lower value. In short, it runs like this: as §1

Where “and” joins values, the source holds several entries; their conditions need not be identical. Equal entries are not always repeated. The list shows a part of the results. Shown are side measurements of this screen, not its main read-out; they come without a call.

From PubChem BioAssay AID1745853 (National Center for Advancing Translational Sciences (NCATS), 2022) come the findings set out here.
% is set by controls: 0 for no effect and ±100 for the full control effect.

`CCc1cccc(-n2nnnc2N2CCN(C(=O)NC(C)c3ccccc3)CC2)c1` (stereo not drawn): the activity change, negative = inhibition in experiment [1] was -3.02%; in experiment [2] it was 0.13%; in experiment [3], -1.96%; in experiment [4], -15.4%; in experiment [5], -3.76%.
For `COc1cc(C)c(C(=O)OC2C(C)OC(OC3CCC(C)C4C3C=C(C)C3/C(C)=C\CC/C(C)=C/C5(C)C=C(C(=O)O)C(C)CC56OC(=O)/C(=C(\O)C34C)C6=O)C(O)C2O)c(OC)c1` (stereo not drawn), in that order: 1.22%, 7.37%, 10.2%, -7.04% and -0.206%.
The like results for `CC(C)CCn1c(=O)c2ccc(C(=O)NC(C)C)cc2n2c(=O)n(CC(=O)c3cccc(Cl)c3)nc12` were, in that order, -0.662%, 4.59%, -2.99%, -0.537% and 0.336%.
Take `CCN1c2cc(C(=O)N3CCN(c4cccc(C)c4)CC3)ccc2C(=O)N2CCCCC21` (stereo not drawn): the activity change, negative = inhibition in experiment [1] is -14.4%; in experiment [2] it was -6.42%; in experiment [3], -9.1%; in experiment [4], -25.1%; in experiment [5], 4.28%.
For `CC[C@H]1CN(S(C)(=O)=O)CC[C@H]1CC(=O)NCc1ccco1`, in that order: -2.06%, 0.975%, -0.591%, -0.511% and 0.706%.
The like results for `Cc1ccc(N2C(=O)N[C@@H]3CCN(S(=O)(=O)c4ccc(Cl)cc4)[C@@H]3C2=O)cc1` were, in that order, -9.7%, -8.21%, -5.67%, -15.2% and -14.7%.
The like results for `COc1ccccc1CN1C(=O)c2cc(-c3ccco3)nn2CC1(C)C(=O)NC1CCCCCC1` (stereo not drawn) were, in that order, -1.24%, 2.22%, 0.235%, -3.79% and -4.91%.
As to `Cc1ccc(C)c(N2CCN(S(=O)(=O)c3ccc4c(c3)n(C)c(=O)n4C)CC2)c1`, the activity change, negative = inhibition in experiment [1] is -4.73%; in experiment [2] it was 0%; in experiment [3], 5.31%; in experiment [4] it was 2.82%; in experiment [5], 0.132%.
For `CCCSCCCN1C(=O)c2cc3sc(CC)cc3n2CC1(C)C(=O)NC1CCCCCC1` (stereo not drawn), in that order: 1.02%, 5.46%, 1.53%, 5.02% and -4.85%.
The like results for `CCCn1c(=O)c2ccc(C(=O)NC3CCCCC3)cc2n2c(=O)n(CC(=O)Nc3ccc(C)cc3)nc12` were, in that order, 9.78%, 1.75%, 15%, 10.8% and 10.7%.
The like results for `CCN(CC)CCCNC(=O)c1cc2n(n1)CC(C)(C(=O)NCc1ccccc1)N(C)C2=O` (stereo not drawn) were, in that order, 3.84%, 0%, 1.43%, 3.66% and 0.797%.
Take `CCC(C)NC(=O)c1ccc2c(=O)n(C)c3nn(CC(=O)N(C)c4ccc(F)cc4)c(=O)n3c2c1` (stereo not drawn): the activity change, negative = inhibition in experiment [1] was determined as 6.39%; in experiment [2] it was 0.62%; in experiment [3] it was 4.49%; in experiment [4], 9.14%; in experiment [5], 6.37%.
For `O=C(c1ccc(Cl)nc1)N1CCC(C(=O)N2CCC(N3CCCC3=O)CC2)CC1`, in that order: -2.13%, -5.76%, -0.611%, -6.08% and -2.58%.
As for `CC1(O)CCCC2(C)C1CCC13CC(CO)C(CCC12)C3` (stereo not drawn), the activity change, negative = inhibition in experiment [1] was -1.9%; in experiment [2], -4.97%; in experiment [3], 4.3%; in experiment [4] it was -19.4%; in experiment [5] it was -3.04%.
For `CC(=O)SC1CC2=CC(=O)CC[C@]2(C)C2CC[C@@]3(C)C(CC[C@@]34CCC(=O)O4)C12` (stereo partly drawn), in that order: -3.17%, 13.9%, 8.29%, -5.25% and 5.97%.
Consider `CN(C)Cc1nnc(C2CCN(C(=O)CCNS(C)(=O)=O)CC2)n1C`, for which the activity change, negative = inhibition was -1.16% in experiment [1]; -3.58% in experiment [2]; -0.223% in experiment [3]; -8.04% in experiment [4]; -3.92% in experiment [5].
As to `COC(=O)c1ncn2c1C(=O)N(CCc1cccs1)C(C)(C(=O)NC1CCCCCC1)C2` (stereo not drawn), the activity change, negative = inhibition amounted to 9.84% in experiment [1]; 0% in experiment [2]; 6.27% in experiment [3]; 7.83% in experiment [4]; 5.07% in experiment [5].
The like results for `CCOc1ccc(N2C(=O)c3cc4oc(C)cc4n3CC2(C)C(=O)NC2CCCCCC2)cc1` (stereo not drawn) were, in that order, -1.17%, 0%, 6.98%, -0.68% and 0.563%.
The like results for `C[C@@H]1CC[C@]2(C(=O)O)CC[C@]3(C(=O)O)C(=CCC4[C@@]5(C)CC[C@H](O[C@@H]6O[C@@H](C)[C@H](O[C@@H]7O[C@H](CO)[C@@H](O)[C@H](O)[C@H]7O)[C@@H](O)[C@H]6O)C(C)(C)C5CC[C@]43C)C2[C@H]1C` (stereo partly drawn) were, in that order, 0.488%, 1.63%, 8.2%, -12.4% and 6.32%.
For `Cc1cc2c(cc3n2CC(C)(C(=O)NC2CCCCC2)N(C2CCCCC2)C3=O)o1` (stereo not drawn), in that order: 0.265%, 3.11%, -5.59%, -3.67% and -6.06%.
Consider `Cc1csc(S(=O)(=O)N2CC[C@@H]3[C@@H](CCC(=O)N3CCN)C2)c1`, for which the activity change, negative = inhibition in experiment [1] was -4.09%; in experiment [2], -3.35%; in experiment [3] it was -1.38%; in experiment [4], -12.2%; in experiment [5], 5.29%.
Regarding `COc1ccc(NC(=O)CSc2nnc3n(CC(C)C)c(=O)c4ccccc4n23)cc1OC`, the activity change, negative = inhibition in experiment [1] is -8.86%; in experiment [2], 0.799%; in experiment [3], 3.56%; in experiment [4], -3.38%; in experiment [5], -2.46%.
For `CC(C)CNC(=O)c1ccc2c(=O)n(Cc3ccccc3)c3nn(C)c(=O)n3c2c1`, in that order: -3.35%, 1.15%, 2.14%, -7.53% and -4.05%.
Consider `COc1cc(CCc2cc(NC(=O)c3ccc(N4C[C@@H](C)N[C@@H](C)C4)cc3)n[nH]2)cc(OC)c1`, for which the activity change, negative = inhibition in experiment [1] was -5.9%; in experiment [2] it was 9.9% and 12.4%; in experiment [3], -22.7%; in experiment [4], -5.92% and -9.48%; in experiment [5], -1.47% and 3.72%.
`CCCn1c(=O)c2cc(Cl)ccc2n2c(=O)n(CC(=O)Nc3ccc(OC)c(OC)c3)nc12`: the activity change, negative = inhibition in experiment [1] was 2.54%; in experiment [2] it was 0%; in experiment [3] it was 11.2%; in experiment [4], 6.86%; in experiment [5], 2.91%.
The like results for `C1CCC(COCCc2noc(C3CNC3)n2)C1` were, in that order, -21.9%, -12.3%, -5.7%, -16.2% and -8.93%.
With `CCC(CNc1nc(CCN)nc2ccccc12)N1CCN(C)CC1` (stereo not drawn), the activity change, negative = inhibition in experiment [1] was -5.33%; in experiment [2] it was -6.29%; in experiment [3], -16.3%; in experiment [4], -11.6%; in experiment [5], -8.53%.
Regarding `Cc1cc(OCCCS(C)(=O)=O)cc(C)c1-c1cccc(COc2ccc3c(c2)OC[C@H]3CC(=O)O)c1`, the activity change, negative = inhibition was 7.16% in experiment [2], -23.6% in experiment [4] and -6.31% in experiment [5].
For `C=C[C@H]1[C@H](O[C@@H]2O[C@H](CO)[C@@H](O)[C@H](OC(=O)/C=C/c3ccc(O)c(OC)c3)[C@H]2O)OC=C2C(=O)OCC[C@]21O`, the activity change, negative = inhibition in experiment [1] was 0%; in experiment [2] it was 3.87%; in experiment [3], 3.25%; in experiment [4], -8.03%; in experiment [5], 6.37%.
